From article PMC4336329 (PLoS ONE, 2015)
Screen size: about 310,000 compounds; about 2,200 (0.71%) showed an effect of 50% or more. The effect is printed as a negative number. The list shows a part of the results.

biological target: human ether-à-go-go-related gene (hERG) potassium channel (human, UniProt Q12809); assay: primary screen, population patch clamp on CHO cells stably expressing hERG
Sequence (Q12809 whole entry, looked up): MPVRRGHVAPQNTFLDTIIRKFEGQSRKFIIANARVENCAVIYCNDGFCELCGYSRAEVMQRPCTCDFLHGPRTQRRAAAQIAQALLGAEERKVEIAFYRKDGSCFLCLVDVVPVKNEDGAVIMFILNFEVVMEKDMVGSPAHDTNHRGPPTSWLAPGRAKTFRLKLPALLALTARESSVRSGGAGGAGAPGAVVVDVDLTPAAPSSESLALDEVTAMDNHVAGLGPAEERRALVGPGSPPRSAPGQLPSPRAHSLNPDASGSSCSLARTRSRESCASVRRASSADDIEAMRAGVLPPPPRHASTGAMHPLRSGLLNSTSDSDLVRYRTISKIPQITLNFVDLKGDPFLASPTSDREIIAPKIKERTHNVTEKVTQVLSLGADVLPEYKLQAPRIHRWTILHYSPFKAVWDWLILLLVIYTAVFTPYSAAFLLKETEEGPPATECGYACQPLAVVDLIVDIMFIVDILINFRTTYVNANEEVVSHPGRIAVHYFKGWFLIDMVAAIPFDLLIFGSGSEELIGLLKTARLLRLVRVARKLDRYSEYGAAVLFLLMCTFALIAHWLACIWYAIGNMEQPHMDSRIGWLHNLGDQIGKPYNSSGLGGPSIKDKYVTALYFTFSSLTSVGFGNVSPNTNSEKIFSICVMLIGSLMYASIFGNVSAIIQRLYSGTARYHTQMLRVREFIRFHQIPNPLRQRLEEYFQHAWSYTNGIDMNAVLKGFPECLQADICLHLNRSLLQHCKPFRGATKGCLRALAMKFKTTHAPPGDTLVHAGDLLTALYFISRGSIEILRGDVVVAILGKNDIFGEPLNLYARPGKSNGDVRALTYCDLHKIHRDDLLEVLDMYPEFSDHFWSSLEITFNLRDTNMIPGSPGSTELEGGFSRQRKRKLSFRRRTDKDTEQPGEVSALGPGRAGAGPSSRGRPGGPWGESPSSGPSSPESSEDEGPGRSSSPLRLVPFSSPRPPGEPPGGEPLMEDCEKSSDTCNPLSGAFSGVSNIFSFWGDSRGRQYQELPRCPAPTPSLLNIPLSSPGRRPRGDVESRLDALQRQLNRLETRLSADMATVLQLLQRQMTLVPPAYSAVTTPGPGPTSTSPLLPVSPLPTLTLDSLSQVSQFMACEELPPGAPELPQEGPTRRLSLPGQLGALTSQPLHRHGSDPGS

SMILES | hERG current change (%, negative = inhibition) at 1uM
CCOc1ccc(S(=O)(=O)N(C)c2ccc(OCC(=O)NCc3ccco3)cc2)cc1 | 5.17%
Cc1[nH]c(=O)c(C#N)c2c1COC(C)(C)C2 | 13.8%
COc1ccc(CCc2nc(-c3cccs3)no2)cc1 | 5.28%
Cc1noc(NS(=O)(=O)c2ccc(N/C=C\C(=O)c3ccc(Br)cc3)cc2)c1C | 12.5%
Cc1ccc(SCc2cc(-c3ccc(Cl)cc3)on2)cc1 | 10.4%
O=C(CSc1ncccn1)N/N=C/c1ccccc1[N+](=O)[O-] | 13.8%
COc1ccc(C(=O)c2ccccc2)cc1Br | 10.7%
O=C(COC(=O)c1ccccn1)Nc1nccs1 | 13.1%
O=[N+]([O-])c1ccc2c(c1)ncn2-c1ccccc1 | 1.64%
O=S(=O)(c1cccs1)N1CCC2(CC1)OCCN2S(=O)(=O)c1ccccc1 | -3.94%
CC(C)(C)c1cc(CCC(=O)Nc2ccncc2)cc(C(C)(C)C)c1O | 10%
CCC(C)NC(=O)CN1C(=O)NC2(CCc3ccccc3C2)C1=O (stereo not shown) | 13.2%
CCC(=O)N(CCc1ccccc1)Cc1cc2cc(C)ccc2[nH]c1=O | 0.576%
O=C1NC2=C(C(=O)CCC2)C(c2ccccc2Cl)N1 (stereo not shown) | 17.4%
COCCn1ccc2c(OCC(=O)Nc3ccccc3OC)cccc2c1=O | 8.49%
O=C(CN1CCN(C(=O)c2cccs2)CC1)Nc1ccc(Br)cc1 | -68.2%
CCCCCC(=O)Nc1nc(C)c(-c2csc(Nc3cc(OC)ccc3OC)n2)s1 | 9.1%
O=C(C[n+]1ccc(Cc2ccccc2)cc1)Nc1ccccc1.[Cl-] | 13.2%
COc1ccc(N(C)S(=O)(=O)c2cccc(C(=O)Nc3cc(OC)ccc3OC)c2)cc1 | 12.6%
S=c1[nH]nc(COc2ccccc2)n1-c1ccccc1 | 7.33%
CCOC(=O)C1=C(C)NC(=O)CC1c1cc2c(cc1Br)OCO2 (stereo not shown) | 4.31%
COc1ccc(Nc2oc(COc3ccc(OC)cc3)nc2C#N)cc1 | 8.9%
O=C(N/N=C/c1coc2ccccc2c1=O)c1cc(Br)ccc1O | 16.2%

SMILES | hERG current change (%, negative = inhibition) at 1uM
CC1(C)Cc2ccccc2-c2nnc(-c3ccc(O)cc3)n21 | 16.9%
O=C(CCS(=O)(=O)c1ccccc1)N1CCN(c2ccc(F)cc2)CC1 | -1.29%
Cc1nnc(NC(=O)C2CCCN2C(=O)Nc2ccccc2)s1 (stereo not shown) | 15.2%
Cc1[nH]n(-c2ccccc2)c(=O)c1N=O | 12.1%
Cc1[nH]nc2c1C(c1c[nH]c3ccccc13)C(C#N)=C(N)O2 (stereo not shown) | 4.49%
O=C(NC1CC2CCCC(C1)N2Cc1ccccc1)C1CCCCC1 (stereo not shown) | 3.78%
CCCCOc1ncnc2c1[nH]c1ccc(F)cc12 | 11.7%
O=C(NCCCn1ccnc1)c1cc(C(=O)C2CCCCC2)c[nH]1 | 11.8%
CC1CC(=O)Nc2ccccc2N1C(=O)Nc1ccccc1 (stereo not shown) | 19.9%
COc1cccc(/C=N/NC(=O)c2ccc([N+](=O)[O-])cc2Cl)c1O | 15.1%
COc1ccc(O)c(C(=O)c2cnc3onc(C)c3c2)c1 | 13.8%
Cc1nnc(SCc2cn3ccsc3n2)n(N)c1=O | 0.818%
COc1ccc(-n2c(SCC(=O)NCc3ccco3)nnc2-c2c[nH]c3ccccc23)cc1 | 10.3%
COc1ccc(NC(=O)CN(C)C(=O)/C=C/c2ccc(OCc3ccccc3)cc2)cc1 | 11.1%
CN1C(=O)C(=Cc2ccc(OCCN(C)c3ccccn3)cc2)C(=O)N(C)C1=O | 8.15%
CCOc1ccc(NC(=O)N2CCCC2C(=O)NCC2CCCO2)cc1 (stereo not shown) | 16.9%
COc1ccc(NC(=O)c2cc(C(=O)Nc3ccc(OC)cc3OC)cc([N+](=O)[O-])c2)c(OC)c1 | 15.5%
O=c1[nH]c(=S)[nH]c2scc(-c3ccc(Br)cc3)c12 | 19.8%
CCCSc1nnc(CN2CCOCC2)n1C | 14.4%
COc1ccc(N2CCN(C(=O)CN(C)S(=O)(=O)c3ccc4c(c3)c(=O)n(C)c(=O)n4C)CC2)cc1 | 9.96%
O=C1c2ccccc2C(=O)c2c1cccc2N1CCN(CCO)CC1 | -64.7%
COc1ccc(NC(=O)CCS(=O)(=O)c2cccc3nonc23)c(OC)c1 | 10.8%
CN1CCN(S(=O)(=O)c2cccc(C(=O)N(C)Cc3cccs3)c2)CC1 | 7.17%

SMILES | hERG current change (%, negative = inhibition) at 1uM
CCC(C)NC(=O)Nc1ccc(F)c(Cl)c1 (stereo not shown) | 17.8%
N#Cc1c(SCC(=O)Nc2cccc(F)c2)sc2c(O)cc(=O)[nH]c12 | 11.5%
CN1CCN(C(=O)CNc2ccc(C(F)(F)F)cc2[N+](=O)[O-])CC1 | -4.92%
COc1ccc(-c2cc(C(=O)Nc3cc(Cl)ccc3O)no2)cc1 | 13.7%
O=C(COc1cccc2cccnc12)N1CCc2ccccc2C1 | 4.59%
CC1(C)CC(=O)C2=C(C1)NC(Nc1nc3ccccc3o1)=NC21CCCC1 | 0.0528%
CCOC(=O)C1(Cc2ccccc2Cl)CCN(C(=O)CCn2ccnc2C)CC1 | 2.18%
CCN(CC)S(=O)(=O)c1ccc(-c2nnc(SCC(C)=O)o2)cc1 | 1.27%
CCCCNC(=O)CCn1c(=S)[nH]c2cc3c(cc2c1=O)OCO3 | 1.57%
COc1ccccc1C1(CC(=O)N2CCOCC2)CCOC(C(C)C)C1 (stereo not shown) | 6.53%
Cc1nc2nc(SCC(=O)O)nn2c(C)c1Cc1c(F)cccc1Cl | 14.3%
COc1cc2c(C(=O)Nc3ccccc3F)cn(C)c(=O)c2cc1OC | 11.7%
Cc1ccc(S(=O)(=O)N2CCN(C(=O)COC(=O)/C=C/c3ccc(F)cc3)CC2)c(C)c1 | 17.6%
COC(=O)C(C)Sc1snnc1-c1ccccc1 (stereo not shown) | 10.4%
CCOC(=O)CN(C(=O)Cn1nnc2ccccc21)C(C(=O)NCCOC)c1ccccc1 (stereo not shown) | 2.99%
CCC(=O)Nc1ccc(C(=O)OCc2ccccc2Cl)cc1 | 4.84%
Cc1ccc(C)c(NC(=S)NCCc2ccc(F)cc2)c1 | 8.55%
Cc1ccc(SCc2c(-c3ccccc3)nn(C)c2Cl)cc1 | 5.94%
O=C(Cn1cnc2ccccc21)Nc1ccc(F)c(F)c1 | 3.75%
CCOC(=O)N1CCC(NC(=O)c2ccc3c(c2)N(Cc2ccccc2)CCS3)CC1 | 13.7%
CCC(=O)Nc1ccc(S(=O)(=O)Nc2ccccn2)cc1 | 16.9%
NC(=O)N/N=C/c1coc2ccc(O)cc2c1=O | 14.2%
CCOC(=O)c1c(C)n2c3c(cc(C)cc13)CCC2 | 7.99%

SMILES | hERG current change (%, negative = inhibition) at 1uM
CC1CCCC(C)N1C(=O)CCN1C(=O)C2C3C=CC(C3)C2C1=O (stereo not shown) | 13.3%
CCOc1ccc(CCNC(=O)C2=C(C)C(=O)OC23CCC(C)CC3)cc1OCC (stereo not shown) | 0.121%
COCCCNC(=O)c1cn(C)c(=O)c2cc(OC)c(OC)cc12 | 14.1%
CCn1c(CSc2nnc(C)n2-c2ccccc2)nc2cc(S(=O)(=O)N(C)C)ccc21 | -2.51%
c1ccc(Oc2cccc(CN3CCOCC3)c2)cc1 | -8.51%
CCC(=O)NCC(=O)OCC(=O)c1ccccc1 | 11.4%
Cc1nc(N2CCN(C(=O)c3ccco3)CC2)c2oc3ccccc3c2n1.Cl | -21.6%
CNC(=O)c1cc2c(=O)n3cccc(C)c3nc2n(C(C)C)c1=N | -82.3%
Cc1cc(C(C)(C)C)c(OC(=O)[C@@H]2OC(c3ccccc3)=C[C@H]2c2ccccc2)c(C(C)(C)C)c1 | 18.6%
CCN(CC)S(=O)(=O)c1cccc(C(=O)NCCCn2ccnc2)c1 | 9.38%
CCc1cc2c(NCc3ccccc3)nc(C)nc2s1.Cl | 8.39%
Cn1c(=O)[nH]c(=O)c2c1nc(NC1CCCCC1)n2Cc1ccccc1 | 12.3%
CC1CC(CC(C)C(=O)Nc2nncs2)C(=O)O1 (stereo not shown) | -7.98%
Cc1ccccc1NC(=O)NCCN1CC1 | 7.94%
O=C(c1cc2cc(Cl)ccc2[nH]1)N1CCN(Cc2ccc3c(c2)OCO3)CC1 | 15.3%
COC(=O)C1(NC(=O)NC23CC4CC(CC(C4)C2)C3)CCCCC1 | 8.25%
COc1cccc(NC(=O)CN(C)C(=O)COc2cc(C)ccc2Cl)c1 | -3.58%
COC(=O)C1C(O)CCC2CN3CCc4c([nH]c5ccccc45)C3CC21 (stereo not shown) | 1.1%
Cc1ccc(CNC(=O)c2cn(C3CCCC3)c(=O)c3c2c2ccccc2n3C)o1 | 5.32%
O=S(=O)(NCCCCNS(=O)(=O)c1ccc(F)cc1)c1ccc(F)cc1 | 1.12%
COc1cc(-c2noc(C)c2C#Cc2ccc(N)cc2)cc(OC)c1OC | 0.236%
Cc1ccc(S(=O)(=O)N2CCN(C(=O)C3CCCO3)CC2)cc1 (stereo not shown) | 9.34%
